Screen size: about 110,000 compounds; about 230 (0.21%) showed an effect of 50% or more. Some of the results follow.
Target: DPAP1 (Plasmodium falciparum, UniProt Q8IIJ9)
Experiment: primary screen, percent inhibition; read by cleavage of a fluorogenic dipeptide substrate; higher = more effect of the substance
Parameters: species or system P. falciparum D10 trophozoite lysates; single well
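Note: 30 min substrate incubation versus DMSO and 10 µM JCP410 controls.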

Sequence of DPAP1 (Q8IIJ9 whole entry, looked up): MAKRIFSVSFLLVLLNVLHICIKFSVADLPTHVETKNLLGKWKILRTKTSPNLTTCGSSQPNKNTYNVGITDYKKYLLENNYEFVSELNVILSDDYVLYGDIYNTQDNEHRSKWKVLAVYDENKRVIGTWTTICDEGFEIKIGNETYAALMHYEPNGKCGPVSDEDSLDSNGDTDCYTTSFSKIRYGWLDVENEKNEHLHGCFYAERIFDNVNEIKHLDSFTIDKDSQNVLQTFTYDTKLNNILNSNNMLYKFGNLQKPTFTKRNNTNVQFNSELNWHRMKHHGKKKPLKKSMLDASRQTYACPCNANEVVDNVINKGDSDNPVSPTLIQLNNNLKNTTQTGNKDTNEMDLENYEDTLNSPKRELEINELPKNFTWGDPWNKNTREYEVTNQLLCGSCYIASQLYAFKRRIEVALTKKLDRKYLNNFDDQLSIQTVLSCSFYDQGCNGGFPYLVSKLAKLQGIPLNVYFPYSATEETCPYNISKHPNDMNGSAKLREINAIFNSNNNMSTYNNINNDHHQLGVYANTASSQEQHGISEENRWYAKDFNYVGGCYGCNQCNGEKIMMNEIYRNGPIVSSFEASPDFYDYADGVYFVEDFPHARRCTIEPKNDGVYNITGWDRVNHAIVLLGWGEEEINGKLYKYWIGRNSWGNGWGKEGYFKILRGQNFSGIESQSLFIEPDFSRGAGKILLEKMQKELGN

Structure (SMILES)	% Inhibition @ 10 uM
Cc1cccc(OCCCn2cnc3ccccc32)c1	-0.551%
CCOC(=O)c1ccc(OCC2c3cc(OC)c(OC)cc3CCN2C(=S)NCCOC)cc1 (stereo not drawn)	0.457%
O=C(O)CSc1c2c(nc3cc(C(=O)N4CCCC4)ccc13)CCCC2	-0.0593%
COc1ccc(COC(=O)C2=C(C)NC(=O)CC2c2ccccc2Cl)cc1 (stereo not drawn)	-10.3%
CC(C)Cc1nnc2sc(NC(=O)c3ccccc3)nn12	6.38%
CC(C)(C)c1ccc(CN(Cc2ccco2)C(=O)COc2ccccc2)cc1	-1.07%
CCn1cc(C(=O)OCc2ccccc2)c(=O)c2ccc(C)nc21	1.74%
COc1ccc(OC)c(-c2cc(C(=O)O)c3cc(Br)ccc3n2)c1	-3.72%
Cc1cccc(Cn2c(Sc3nnc(C)s3)nc3c2c(=O)[nH]c(=O)n3C)c1	-4.54%
O=C(O)CSc1ccc(C(F)(F)F)cc1Cl	-0.0108%
CC(C)Cn1c(=O)c2ccccc2n2c(CCC(=O)NCc3ccc(F)cc3)nnc12	-4.21%
CC(=O)Nc1ccc(S(=O)(=O)Nc2nc3ccccc3nc2Nc2cccc(S(N)(=O)=O)c2)cc1	1.42%
CC(=O)NC(Cc1c[nH]c2ccccc12)C(=O)NCCOc1ccc(C(C)(C)c2ccccc2)cc1 (stereo not drawn)	10.6%
Cc1cc(S(=O)(=O)c2cc3ccc(O)c(C)c3oc2=O)ccc1F	3.75%
COC(=O)c1ccc(NC(=O)c2cccs2)cc1	-5.38%
O=C1NCCCC[C@@H]1NC1CCc2ccccc2C1 (stereo partly drawn)	-3.6%
O=C1NC(c2c(O)ccc3ccccc23)Nc2sc3c(c21)CCCC3 (stereo not drawn)	1.24%
O=C(CSc1nc(O)cc(-c2ccccc2)n1)NCC1CCCO1 (stereo not drawn)	2.01%
O=C(O)C1CCCCC1C(=O)Nc1ccc2c(c1)OCCO2 (stereo not drawn)	-4.82%
CC1CN(C(=O)Cn2cc(SCC(=O)NC(C)(C)C)c3ccccc32)CC(C)O1 (stereo not drawn)	6.05%
C=CCSc1nc(O)c2cnn(-c3ccc(C)cc3)c2n1	-9.18%
Cc1cccc(C(=O)Nc2cccnc2)c1	-0.598%
O=C(O)COc1ccc(/C=c2\sc3nc4ccccc4n3c2=O)cc1	6.23%
Cc1ccccc1CN(c1ccc(C(=O)Nc2ccc3c(c2)OCCO3)cc1)S(C)(=O)=O	1.94%
CCc1ccc(OCC(=O)Nc2ccc(S(=O)(=O)N3CCCC3)cc2)c(Br)c1	4.22%
Cc1cc(C)nc(SCCC(=O)Nc2ccc(Br)cc2)n1	-3.65%
Cc1oc(-c2ccc(Cl)cc2)nc1CN1CCC(C(=O)NC2CCCCCC2)CC1	0.689%

Source: publication PMC6919601, “Identification of Plasmodium dipeptidyl aminopeptidase allosteric inhibitors by high throughput screening” (PLoS ONE, 2019)
